Assay results from PubChem BioAssay AID686978 (National Center for Advancing Translational Sciences (NCATS), 2013).
Hit rate of the full screen: of about 420,000 compounds, about 64,000 (15%) were called active. The inconclusive results got no clear call from the source; some entries with a clear call stand among them for comparison. Calls come from the whole dose curve; as a rule, active = well fitted inhibition curve with a large enough effect; inconclusive = small, poorly fitted or top-dose-only effect; inactive = flat fitted curve, though single readings scatter. No potency is given beside an inconclusive call; the fits are too rough.

test: qHTS for Inhibitors of human tyrosyl-DNA phosphodiesterase 1 (TDP1): qHTS in cells in absence of CPT; conditions: DT40 Tdp1-/- hTDP1 cells, no CPT, ATP luminescence, 48 h; activity change, negative = growth inhibition: at 46.2 µM (top of the series) unless noted; note: nearly all actives have a fitted effect of over 55% in size
Summary of the method: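 Camptothecin absent (DMSO only). Human TDP1-complemented DT40 knockout cells, 400 cells/well, 37 °C for minimum 48 hr; ATP measured via CellTiter-Glo, 30 min dark incubation, luminescence.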
% is set by controls: 0 for no effect and ±100 for the full control effect; potency is the fitted concentration of half-maximal effect; tags give direction and shape of the fitted curve.

SMILES | Potency | activity change, negative = growth inhibition
CC/C(=N\NS(=O)(=O)c1ccc(C)cc1)c1ccco1 | inactive | 
Cc1ccc(NC(=O)c2nc[nH]c2C(=O)N[C@H](C)c2ccccc2)cc1 | inconclusive [inhibitor, single point] | 
C=CCC1(C(=O)NCCO)CCN(C(=O)OC(C)(C)C)CC1 | inactive | 
CC(NC(=O)C12CC3CC(CC(C3)C1)C2)C(=O)NCCN(C)C (stereo not given) | inconclusive [inhibitor, single point] | 
Cc1ccc(CNC(=O)c2nccnc2C(=O)O)cc1 | inactive | 
COc1cccc(Nc2ncc3nc(-c4ccccc4)c(=O)n(C[C@H]4CCCO4)c3n2)c1 | inconclusive [inhibitor, full curve, poor fit] | 
Cc1cccc2cc(CNCc3ccccc3)c(Cl)nc12 | inconclusive [inhibitor, partial curve] | 
C=CCN1C(=O)C(Cc2ccc(OC)cc2)S/C1=N\N=C\c1cccs1 (stereo not given) | inactive | 
O=C(CCc1nnc(CCCc2ccccc2)o1)NCCN1CCOC1=O | inactive | 
CCCCc1ccc(NC(=S)NN2CCOCC2)cc1 |  | inconclusive: -35.9% [inhibitor]
Cc1cc(Cl)ccc1NC(=S)N1CCN(Cc2ccc3c(c2)OCO3)CC1 | inconclusive [inhibitor, single point] | 
CCOC(=O)c1sc(N(Cc2ccccc2)C(=O)COC(=O)c2ccccc2O)nc1C | inconclusive [inhibitor, single point] | 
CSc1cccc(NC(=O)c2ccc(Cl)nc2)c1 |  | inconclusive: -34.5% [inhibitor]
CC(C)c1c(C(=O)N2CCCCC2c2cccnc2)cnn1-c1nccc(-c2cccs2)n1 (stereo not given) | inconclusive [inhibitor, single point] | 
CCOc1ccc(S(=O)(=O)NNC(=S)Nc2ccc(Br)cc2)cc1 | inconclusive [inhibitor, partial curve] | 
CCOc1cc(OCC)cc(C(=O)N2CCC[C@H]2C(=O)N2CCC[C@H]2C(=O)N[C@@H](C)c2ccccc2)c1 | inconclusive [inhibitor, partial curve, poor fit] | 
Cc1cc(C)cc(C(=O)N2CC(=O)Nc3ccccc32)c1 | active: 0.58 µM | 
O=C(COC(=O)Cc1ccccc1F)NCc1ccc(Cl)cc1 | inactive | 
CCOc1ccc(NS(=O)(=O)c2cc(C)c(C)cc2C)cc1 | inconclusive [inhibitor, partial curve] | 
Cc1ccc(CN2C3=NCCCN3c3ccccc32)cc1 | inconclusive [inhibitor, single point] | 
Cc1ccccc1C(=O)c1cccn1CC(=O)N1CCCCC1 | inconclusive [inhibitor, full curve, poor fit] | 
CCC(Cc1ccccc1)NC(=O)c1cc(S(=O)(=O)N2CCCCC2)c[nH]1 (stereo not given) | inconclusive [inhibitor, single point] | 
O=C(Nc1ccc(Nc2ccccc2)cc1)c1ccc(Cl)cc1Cl | inconclusive [inhibitor, single point] | 
Cc1ccccc1NC(=O)Cc1nc(COC(=O)C(NC(=O)c2ccccc2C)C(C)C)cs1 (stereo not given) | inconclusive [inhibitor, single point] | 
Cc1ccc(C(=O)Nc2ccc(Br)cc2)cc1S(=O)(=O)Nc1ccccn1 | inactive | 

SMILES | Potency | activity change, negative = growth inhibition
Cc1ccc(-n2c(C(C)C)nc3oc4ccccc4c(=O)c3c2=O)cc1 | inactive | 
COc1ccc(/C=N/NC(=O)CN(c2ccc(OC)cc2)S(=O)(=O)c2ccccc2)cc1 | inconclusive [inhibitor, single point] | 
Cc1cccc2cc(C#N)c(SCc3nnc(-c4ccccc4[N+](=O)[O-])o3)nc12 | inconclusive [inhibitor, single point] | 
O=C(CN1CCN(c2ccc([N+](=O)[O-])cc2)CC1)c1ccccc1 | inconclusive [inhibitor, single point] | 
O/N=C1\CCCc2nnc3c(c21)CCCC3 | inactive | 
CC1(C(=O)NCc2ccccc2)CCC(=O)N1CCCn1ccnc1 (stereo not given) | inactive | 
CC(C)Oc1cccc(C(=O)C2CCCN(C(=O)CCn3cnnn3)C2)c1 (stereo not given) | inactive | 
COc1ccc(OCc2nc(-c3ccc(-n4cccc4)cc3)no2)cc1 | inactive | 
Cc1ccccc1CSc1ccc(-c2cccs2)nn1 | inconclusive [inhibitor, single point] | 
CCCN(CC(=O)Nc1ccc(NC(C)=O)cc1)CC(=O)Nc1ccc(F)c(F)c1F | inconclusive [inhibitor, single point] | 
COc1cc(CN2C(=O)C(C)ON=C2c2ccccc2F)cc(OC)c1 (stereo not given) | inconclusive [inhibitor, single point] | 
O=C(CSc1nc2cc(Cl)ccc2o1)N1CCOCC1 | inconclusive [inhibitor, full curve] | 
Cc1ccc(NC(=O)Cn2cc(C(=O)C3CC3)c3ccccc32)cc1C | inactive | 
COc1ccc(CN2CCC(C(=O)NCCc3ccc(OC)c(OC)c3)CC2)c(OC)c1 | inconclusive [inhibitor, single point] | 
Cc1cccc(NC(=O)c2cc(S(=O)(=O)N3CCCCCC3)cn2C)c1C | inconclusive [inhibitor, single point] | 
O=c1cc(-c2ccccc2Cl)c2c([nH]1)CCC2 |  | inconclusive: -32.4% [inhibitor]
Cc1cc(C)n(-c2nc(C)c(C)c(=O)n2CC(=O)Nc2ccc(OC(F)(F)F)cc2)n1 | active: 18.4 µM | 
Cc1nc(N2CCN(C(=O)c3ccco3)CC2)c2c3c(sc2n1)CCCC3 | active: 14.6 µM | 
CCOC(=O)c1ccccc1NC(=S)N1CCN(C(=O)c2ccco2)CC1 | inconclusive [inhibitor, single point] | 
COc1ccc(S(=O)(=O)N2CCC(C(=O)Nc3ccc(F)cc3)CC2)c2cccnc12 | inconclusive [inhibitor, single point] | 
O=C(c1ccco1)N1CCN(C(=O)C2CC(c3ccc(F)cc3)=NO2)CC1 (stereo not given) | inactive | 
CC1CCC2(CC1)NC(=O)N(CC(=O)c1ccc3c(c1)OCO3)C2=O (stereo not given) | inactive | 
COc1cc(C(C2=C(O)CC(C)(C)CC2=O)C2C(=O)CC(C)(C)CC2=O)cc(OC)c1OC (stereo not given) | inactive | 
COc1ccc(OC)c(S(=O)(=O)N2Cc3ccccc3CC2C(=O)O)c1 (stereo not given) | inactive | 
O=c1c(F)cn(C2CCCO2)c(=O)n1Cc1ccc(Cl)cc1 (stereo not given) | inactive | 

SMILES | Potency | activity change, negative = growth inhibition
COc1cc(NC(=O)CN2CCN(c3ccc(F)cc3)CC2)cc(OC)c1 | inconclusive [inhibitor, single point] | 
Cc1ccc2c(c1)N(CC(=O)NCC1CCCO1)C(=O)CO2 (stereo not given) | inactive | 
CC1=C(C(=O)OCC2CCCO2)C(c2cccc(C(F)(F)F)c2)C2=C(CC(c3ccco3)CC2=O)N1 (stereo not given) | inconclusive [inhibitor, single point] | 
O=C(Nc1nc2ccc(F)cc2s1)c1ccc([N+](=O)[O-])o1 | active: 7.31 µM | 
CCCNC(=O)COC(=O)c1c2c(nc3ccccc13)CCC2 | inconclusive [inhibitor, single point] | 
COc1cccc(NC(=S)N2CCCN(Cc3ccc(F)cc3)C2)c1 | active: 23.1 µM | 
COc1ccc(CNCCCO)cc1OC | inconclusive [inhibitor, single point] | 
CCN1C[C@@H]2[C@@H]3C(=O)N(Cc4ccccc4)C(=O)[C@@H]3[C@](C)(C1=O)N2C(=O)c1ccc(C(F)(F)F)cc1 | inactive | 
Cc1ccn2c(CNCC3OCCc4ccccc43)c(C(=O)N3CCCCCC3)nc2c1 (stereo not given) | inconclusive [inhibitor, single point] | 
O=Cc1ccc2noc(-c3ccc(F)cc3)c2c1 |  | inconclusive: -30.3% [inhibitor]
CCC(=O)Nc1ccc(NC(=O)c2ccco2)cc1 | inactive | 
Cn1c(-c2ccc(F)cc2)cnc1SCC(=O)Nc1ccccc1 | inconclusive [inhibitor, single point] | 
O=C(c1ccc2ncsc2c1)N1CCN(c2nc3ccccc3s2)CC1 | active: 14.6 µM | 
Cc1noc(N)c1C1(O)C(=O)N(C(C)C)c2ccccc21 (stereo not given) | inactive | 
O=S(=O)(c1ccccc1)N1CCN(c2ccnc3cc(Cl)ccc23)CC1 | inconclusive [inhibitor, single point] | 
Cc1ccc(NC(=O)CCc2c(C)nc3c(-c4ccc(F)cc4)c(C)nn3c2C)cc1F | inconclusive [inhibitor, partial curve] | 
Cc1ccc2oc(-c3ccc(NC(=O)CCC(=O)O)cc3)nc2c1 | inactive | 
Cc1cc(C)c2c(c1)NC(C(=O)O)C1CC=CC21 (stereo not given) | inactive | 
COc1ccc(C2(O)CCN(CCCCOc3ccccc3)CC2)cc1 | inconclusive [inhibitor, single point] | 
O=c1c2cccc(Cl)c2nc2n1Cc1ccccc1-2 | inconclusive [inhibitor, partial curve] | 
CC1=CC2=NC(=O)/C(=C\c3ccc(-c4cccc(Cl)c4)o3)C(=N)N2O1 | active: 2.59 µM | 
CN(C)c1ccc(N2C(=NC(=O)C3CCCO3)SC3CS(=O)(=O)CC32)cc1 (stereo not given) | inactive | 
c1cncc(CNc2ncncc2-c2cccnc2)c1 | inactive | 
CN(C)c1ccnc(N(Cc2ccccc2)Cc2ccccc2)c1C#N | inconclusive [inhibitor, partial curve] | 
CC(C)(C)c1nc2ccccc2c(=O)n1N1C(=O)c2ccccc2C1=O | inconclusive [inhibitor, single point] | 
